Assay results: PubChem BioAssay AID1508624 (National Center for Advancing Translational Sciences (NCATS), 2021)
Out of some 48,000 compounds screened, about 120 (0.25%) were called active. Inconclusive results (about 4%) are left out. The call rests on the fitted dose curve; in most records, active means well fitted activation curve with a large enough effect; inconclusive means small, poorly fitted or top-dose-only effect, or another doubt; inactive means no such curve, though single readings can be large or run the other way. The list shows a part of the results.

Assay: Primary qHTS for Identification of Small Molecule Activators of Huntingtin-Antisense Promoter Activity; further: nearly all actives have a fitted effect of over 55% in size
Details: HEK293 HTT-AS promoter firefly luciferase reporter (activity 0% = vehicle and -100% = no light), 24 h; series mostly up to 57.5 µM; activity change, positive = activation: at the top concentration
Outline: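 Firefly luciferase readout (Dual-Glo, 10 min RT) after 24 h, 37 °C compound exposure (final up to 57.5 uM) of HEK293 reporter cells cultured 24 h beforehand; PTC124 at 50 uM final as control inhibitor; activity scaled vehicle 0%, zero RLU -100%.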
Potency means the concentration at half of the fitted maximal effect.

Row | Structure (SMILES) | activity change, positive = activation | Potency
1 | CCC(C(=O)NCc1ccccc1OC)n1nc(C)n2c(cc3occc32)c1=O (configuration not stated) | inactive: -18.2% | –
2 | Cc1oc(-c2ccccc2Cl)nc1CS(=O)(=O)CC(=O)NCc1ccc(F)cc1 | inactive: -29.9% | –
3 | COC(=O)c1cccc(NC2=NS(=O)(=O)c3ccccc32)c1 | inactive: -3.45% | –
4 | CCCCCC1Nc2cc(C(F)(F)F)c(S(N)(=O)=O)cc2S(=O)(=O)N1 (configuration not stated) | inactive: -4.77% | –
5 | COc1ccc(C)cc1NC(=O)C1CCN(S(=O)(=O)c2cc(Br)cc3c2N(C(C)=O)CC3)CC1 | inactive: -0.357% | –
6 | CCc1nn2c(=O)cc(COC(=O)c3ccccc3)nc2s1 | – | active: 3.98 µM
7 | CCOc1ccccc1NC(=O)N(Cc1ccc(C)o1)C1CCN(C(C)=O)CC1 | inactive: -17% | –
8 | COc1ccc(C)c2sc(N3CCN(C(=O)c4cccc(F)c4)CC3)nc12 | inactive: -8.91% | –
9 | CCOC(=O)CNC(=O)N1CCCN(S(=O)(=O)c2ccc3c(ccn3CC)c2)CC1 | inactive: -1.81% | –
10 | Cc1ccc(-c2cc3ncc4c(n3n2)-c2cc(F)ccc2OC4)cc1 | inactive: 6.38% | –
11 | CCc1ccc(C(=O)c2cn(CC(=O)Nc3cccc(OC)c3)c3cc4c(cc3c2=O)OCO4)cc1 | inactive: -20.6% | –
12 | O=C(CSc1nnc(-c2ccc(Cl)cc2)o1)c1ccc([N+](=O)[O-])cc1 | inactive: -7.06% | –
13 | CCn1c(SCc2c(F)cccc2Cl)nc(=O)c2c(C(=O)OC)cc(C3CC3)nc21 | inactive: 11% | –
14 | O=C(c1ccccc1Br)N(Cc1ccco1)Cc1ccco1 | inactive: -29.8% | –
15 | CC1Cc2ccccc2N1C(=O)CSc1nc2ccc(NC(=O)COc3ccccc3)cc2s1 (configuration not stated) | inactive: -25.8% | –
16 | CC1=C(C(=O)NCc2cccc(F)c2)C2(CCCCC2)OC1=O | inactive: -16.7% | –
17 | CCOC(=O)C(C)Sc1ccc2nnc(CCNS(=O)(=O)c3ccc(C)cc3)n2n1 (configuration not stated) | inactive: 1.26% | –
18 | CCCCOC(=O)c1ccc(N)cc1 | inactive: 24.4% | –
19 | N#Cc1c(C(F)(F)F)cc(-c2cccs2)nc1SCc1ccc(F)cc1 | inactive: -4.7% | –
20 | Cc1ccccc1CSc1cn(CC(=O)N2CCCCC2)c2ccccc12 | inactive: 7.63% | –
21 | CCOC(=O)c1c(C)oc2nc(C)nc(NCC3CCN(Cc4ccc(C)cc4)CC3)c12 | inactive: -19.1% | –
22 | Cc1nn(C)cc1CN(C)C(=O)c1cc(-c2ccccc2)nc2ccc(Br)cc12 | inactive: -21.2% | –
23 | CCOc1ccc(CCNC(=O)c2oc(=O)c3ccccc3c2-c2ccc(C)cc2)cc1OCC | inactive: -29.9% | –
24 | Cc1ccc(NC(=O)CCS(=O)(=O)c2ccc(Br)s2)c(Br)c1 | inactive: -18.1% | –

Row | Structure (SMILES) | activity change, positive = activation | Potency
25 | CC(C)(C)c1ccc(C(=O)NCCc2csc(-c3ccc(Cl)cc3)n2)cc1 | inactive: -13.2% | –
26 | COc1ccc(C(=O)Nc2ccc(N(C)Cc3ccccc3)c(C(=O)O)c2)cc1 | inactive: -5.7% | –
27 | CCOC(=O)Cn1c(=O)n(CC2CCCO2)c2nc(-c3ccccc3)nc(C(N)=O)c21 (configuration not stated) | inactive: -3.38% | –
28 | CCOC(=O)C1=C(CN2CCN(c3ccccc3OC)CC2)NC(=O)NC1c1ccccc1 (configuration not stated) | inactive: -32.7% | –
29 | Cc1cc(C)cc(NC(=O)N2CCC(CN3CCOCC3)CC2)c1 | inactive: -3.9% | –
30 | CC(C)NC(=O)N1[C@H](c2cccs2)[C@@H](C)C(=O)[C@@H](C)[C@@H]1c1cccs1 | inactive: -14.1% | –
31 | O=C(Nc1ccc(C(=O)O)c(O)c1)c1ccccc1 | inactive: -3.93% | –
32 | O=C(CN1CCCN(Cc2ccccc2F)S1(=O)=O)Nc1ccc(F)c(Cl)c1 | inactive: -19.3% | –
33 | Cc1ccc(CNCc2ccccc2Cl)s1 | inactive: 20.9% | –
34 | COc1ccc(-c2nnc(SCC(=O)NCCC(C)C)nc2-c2ccc(OC)c(OC)c2)cc1OC | inactive: -24.5% | –
35 | COCc1cc(C)nc2c1C(=O)NC(c1ccc(F)cc1)N2Cc1ccccc1 (configuration not stated) | inactive: -13.5% | –
36 | COC(=O)c1cc2oc(C)cc2n1CC(=O)Nc1ccc(C(C)C)cc1 | inactive: -1.11% | –
37 | CCCCNC(=O)c1ccc2c(=O)n(Cc3ccc(OC)cc3)c(=O)[nH]c2c1 | inactive: -7.4% | –
38 | Cc1cc(S(=O)(=O)C(CNC(=O)c2ccc(F)c(F)c2)c2cccs2)ccc1F (configuration not stated) | inactive: -8.97% | –
39 | Cc1ccc(S(=O)(=O)n2nc(-c3ccc(Cl)cc3)nc2NCc2ccc(F)cc2)cc1 | inactive: -4.57% | –
40 | Cc1cc(C)c2c(CC(=O)Nc3ccc(S(=O)(=O)Nc4nc(C)cc(C)n4)cc3)coc2c1 | inactive: -35.8% | –
41 | COc1ccc(CNC(=O)c2cc3cc(OC)ccc3oc2=O)cc1 | inactive: -5.68% | –
42 | CC[C@]1(O)C[C@H]2CN(CCC3=c4ccccc4=N[C]3[C@@](C(=O)OC)(c3cc4c(cc3OC)N(C)[C@H]3[C@@](O)(C(N)=O)[C@H](O)[C@]5(CC)C=CCN6CC[C@]43[C@@H]65)C2)C1 | inactive: -33.1% | –
43 | Cc1ccc(-c2ccc(=O)n(CC(=O)NCCc3ccccc3)n2)cc1 | inactive: -8.58% | –
44 | O=S(=O)(NCCc1csc2nc(-c3ccccc3)nn12)c1cc(F)ccc1F | inactive: -21.1% | –
45 | Cc1ccc(-n2ncc3c(Nc4cccc(C(=O)O)c4)ncnc32)cc1 | inactive: -22.5% | –
46 | Cc1cccc(/C=C/c2onc(C)c2S(=O)(=O)N2CCC(C(=O)N3CCCCC3)CC2)c1 | inactive: -32.7% | –
47 | COc1ccc(-c2[nH]c(-c3ccc(Cl)cc3)nc2SCC(=O)NCC2CCCO2)cc1 (configuration not stated) | inactive: -22.5% | –
